Test results published in publication PMC9911399, “Two distinct binding modes provide the RNA-binding protein RbFox with extraordinary sequence specificity”.
Substitutions are numbered along the chain they refer to; changes in the protein carry UniProt numbers. This is one part of the list.

T1: RBFOX1 RRM RbFoxmut (Fox-RRM*) (Homo sapiens, UniProt Q9NWB1 109-208, R118D;E147R;N151S;E152T)
T1 sequence: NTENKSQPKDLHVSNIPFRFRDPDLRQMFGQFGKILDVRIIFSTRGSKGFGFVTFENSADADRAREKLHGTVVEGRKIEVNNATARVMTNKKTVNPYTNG

B1: AUGCGAG (DNA:RNA)
RNA: GGGAGACCGGAAUUCAGAUUGUCCAUGCGAGUUAAAUCCCGUCGUAGCCACCA
DNA 1: CAATCTGAATTCCGGTCTCCC
DNA 2: TGGTGGCTACGACGGGATT
B2: UGCGCUC (DNA:RNA)
RNA: GGGAGACCGGAAUUCAGAUUGUCCUGCGCUCUUAAAUCCCGUCGUAGCCACCA
DNA 1: CAATCTGAATTCCGGTCTCCC
DNA 2: TGGTGGCTACGACGGGATT
B3: GUUAAAC (DNA:RNA)
RNA: B1 RNA with A25G, G27U, C28A, G29A, G31C
DNA 1: CAATCTGAATTCCGGTCTCCC
DNA 2: TGGTGGCTACGACGGGATT
B4: CUUUGCA (DNA:RNA)
RNA: B1 RNA with A25C, G27U, C28U, A30C, G31A
DNA 1: CAATCTGAATTCCGGTCTCCC
DNA 2: TGGTGGCTACGACGGGATT
B5: AGACCCC (DNA:RNA)
RNA: B2 RNA with U25A, C27A, G28C, U30C
DNA 1: CAATCTGAATTCCGGTCTCCC
DNA 2: TGGTGGCTACGACGGGATT
B6: AGCUACU (DNA:RNA)
RNA: B2 RNA with U25A, G28U, C29A, U30C, C31U
DNA 1: CAATCTGAATTCCGGTCTCCC
DNA 2: TGGTGGCTACGACGGGATT
B7: CGAUGGG (DNA:RNA)
RNA: B1 RNA with A25C, U26G, G27A, C28U, A30G
DNA 1: CAATCTGAATTCCGGTCTCCC
DNA 2: TGGTGGCTACGACGGGATT
B8: CGCGCCG (DNA:RNA)
RNA: B2 RNA with U25C, U30C, C31G
DNA 1: CAATCTGAATTCCGGTCTCCC
DNA 2: TGGTGGCTACGACGGGATT
B9: AACACAC (DNA:RNA)
RNA: B2 RNA with U25A, G26A, G28A, U30A
DNA 1: CAATCTGAATTCCGGTCTCCC
DNA 2: TGGTGGCTACGACGGGATT
B10: UGGAGGA (DNA:RNA)
RNA: B1 RNA with A25U, U26G, C28A, A30G, G31A
DNA 1: CAATCTGAATTCCGGTCTCCC
DNA 2: TGGTGGCTACGACGGGATT
B11: GAUAUGU (DNA:RNA)
RNA: GGGAGACCGGAAUUCAGAUUGUCCGAUAUGUUUAAAUCCCGUCGUAGCCACCA
DNA 1: CAATCTGAATTCCGGTCTCCC
DNA 2: TGGTGGCTACGACGGGATT
B12: UGCACCG (DNA:RNA)
RNA: B2 RNA with G28A, U30C, C31G
DNA 1: CAATCTGAATTCCGGTCTCCC
DNA 2: TGGTGGCTACGACGGGATT
B13: CUCCUCG (DNA:RNA)
RNA: B1 RNA with A25C, G27C, G29U, A30C
DNA 1: CAATCTGAATTCCGGTCTCCC
DNA 2: TGGTGGCTACGACGGGATT
B14: GACACCA (DNA:RNA)
RNA: B11 RNA with U27C, U29C, G30C, U31A
DNA 1: CAATCTGAATTCCGGTCTCCC
DNA 2: TGGTGGCTACGACGGGATT
B15: GUUGCGU (DNA:RNA)
RNA: B11 RNA with A26U, A28G, U29C
DNA 1: CAATCTGAATTCCGGTCTCCC
DNA 2: TGGTGGCTACGACGGGATT
B16: GCCUUUG (DNA:RNA)
RNA: B11 RNA with A26C, U27C, A28U, G30U, U31G
DNA 1: CAATCTGAATTCCGGTCTCCC
DNA 2: TGGTGGCTACGACGGGATT
B17: GAGCUGU (DNA:RNA)
RNA: B11 RNA with U27G, A28C
DNA 1: CAATCTGAATTCCGGTCTCCC
DNA 2: TGGTGGCTACGACGGGATT
B18: GGGGGCA (DNA:RNA)
RNA: B1 RNA with A25G, U26G, C28G, A30C, G31A
DNA 1: CAATCTGAATTCCGGTCTCCC
DNA 2: TGGTGGCTACGACGGGATT
B19: CUCCAGG (DNA:RNA)
RNA: B1 RNA with A25C, G27C, G29A, A30G
DNA 1: CAATCTGAATTCCGGTCTCCC
DNA 2: TGGTGGCTACGACGGGATT
B20: AGUACAA (DNA:RNA)
RNA: B1 RNA with U26G, G27U, C28A, G29C, G31A
DNA 1: CAATCTGAATTCCGGTCTCCC
DNA 2: TGGTGGCTACGACGGGATT
B21: AUAUUCA (DNA:RNA)
RNA: B1 RNA with G27A, C28U, G29U, A30C, G31A
DNA 1: CAATCTGAATTCCGGTCTCCC
DNA 2: TGGTGGCTACGACGGGATT
B22: GUAUCAU (DNA:RNA)
RNA: B1 RNA with A25G, G27A, C28U, G29C, G31U
DNA 1: CAATCTGAATTCCGGTCTCCC
DNA 2: TGGTGGCTACGACGGGATT
B23: AGGACUU (DNA:RNA)
RNA: B2 RNA with U25A, C27G, G28A, C31U
DNA 1: CAATCTGAATTCCGGTCTCCC
DNA 2: TGGTGGCTACGACGGGATT
B24: CAAAUGA (DNA:RNA)
RNA: B11 RNA with G25C, U27A, U31A
DNA 1: CAATCTGAATTCCGGTCTCCC
DNA 2: TGGTGGCTACGACGGGATT
B25: CGUGUCG (DNA:RNA)
RNA: B11 RNA with G25C, A26G, A28G, G30C, U31G
DNA 1: CAATCTGAATTCCGGTCTCCC
DNA 2: TGGTGGCTACGACGGGATT
B26: CUAGGCA (DNA:RNA)
RNA: B1 RNA with A25C, G27A, C28G, A30C, G31A
DNA 1: CAATCTGAATTCCGGTCTCCC
DNA 2: TGGTGGCTACGACGGGATT
B27: AUGCAAC (DNA:RNA)
RNA: B1 RNA with G29A, G31C
DNA 1: CAATCTGAATTCCGGTCTCCC
DNA 2: TGGTGGCTACGACGGGATT
B28: AACACAG (DNA:RNA)
RNA: B1 RNA with U26A, G27C, C28A, G29C
DNA 1: CAATCTGAATTCCGGTCTCCC
DNA 2: TGGTGGCTACGACGGGATT
B29: CGAUCCA (DNA:RNA)
RNA: B2 RNA with U25C, C27A, G28U, U30C, C31A
DNA 1: CAATCTGAATTCCGGTCTCCC
DNA 2: TGGTGGCTACGACGGGATT
B30: AGCCAGG (DNA:RNA)
RNA: B1 RNA with U26G, G27C, G29A, A30G
DNA 1: CAATCTGAATTCCGGTCTCCC
DNA 2: TGGTGGCTACGACGGGATT
B31: GAAUUCC (DNA:RNA)
RNA: B11 RNA with U27A, A28U, G30C, U31C
DNA 1: CAATCTGAATTCCGGTCTCCC
DNA 2: TGGTGGCTACGACGGGATT

Target: T1, RBFOX1 RRM RbFoxmut (Fox-RRM*)
Assay: EMSA; HiTS-Eq, 1 nM pool, 10 min; buffer printed only for the single-RNA assays: 10 mM Tris pH 7.5, 150 mM NaCl, 3.4 mM EDTA, 0.001% NP-40, 30 C
Conditions: tags: His6 N-terminal (pET28a); label: 5' 32P
How it was run: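 These values rest on relative association constants, computed from read-count changes of each RNA species versus the control reaction and normalised to the cognate motif. Reads came from free RNA recovered by 8% native PAGE after purified RbFox RRM (wild type or mutant) at increasing concentrations was equilibrated for 10 min in 50 µL with 1 nM of a 5′-radiolabelled pool with 7 randomized nucleotides and DNA-annealed flanks.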

Point of comparison: B18, binding signal 0.128 KA relative to UGCAUGU. Against it:
- B1 — higher, 0.153 KA relative to UGCAUGU
- B2 — lower, 0.0793 KA relative to UGCAUGU
- B3 — lower, 0.0658 KA relative to UGCAUGU
- B4 — higher, 0.246 KA relative to UGCAUGU
- B5 — lower, 0.039 KA relative to UGCAUGU
- B6 — lower, 0.1 KA relative to UGCAUGU
- B7 — lower, 0.067 KA relative to UGCAUGU
- B8 — lower, 0.112 KA relative to UGCAUGU
- B9 — lower, 0.0626 KA relative to UGCAUGU
- B10 — lower, 0.0784 KA relative to UGCAUGU
- B11 — higher, 0.157 KA relative to UGCAUGU
- B12 — higher, 0.223 KA relative to UGCAUGU
- B13 — lower, 0.0975 KA relative to UGCAUGU
- B14 — lower, 0.0708 KA relative to UGCAUGU
- B15 — higher, 0.17 KA relative to UGCAUGU
- B16 — lower, 0.0902 KA relative to UGCAUGU
- B17 — lower, 0.11 KA relative to UGCAUGU
- B19 — lower, 0.0613 KA relative to UGCAUGU
- B20 — lower, 0.0581 KA relative to UGCAUGU
- B21 — lower, 0.12 KA relative to UGCAUGU
- B22 — higher, 0.21 KA relative to UGCAUGU
- B23 — lower, 0.063 KA relative to UGCAUGU
- B24 — lower, 0.0896 KA relative to UGCAUGU
- B25 — lower, 0.126 KA relative to UGCAUGU
- B26 — lower, 0.114 KA relative to UGCAUGU
- B27 — lower, 0.0614 KA relative to UGCAUGU
- B28 — lower, 0.0745 KA relative to UGCAUGU
- B29 — lower, 0.117 KA relative to UGCAUGU
- B30 — lower, 0.108 KA relative to UGCAUGU
- B31 — lower, 0.0427 KA relative to UGCAUGU
